The text below walks through data of US20230416313A1 (published 2023).

Assay [1] deals with T1, recombinant human complement factor H (CFH), isolated from moss (human, UniProt P08603 19-1231).
T1 chain: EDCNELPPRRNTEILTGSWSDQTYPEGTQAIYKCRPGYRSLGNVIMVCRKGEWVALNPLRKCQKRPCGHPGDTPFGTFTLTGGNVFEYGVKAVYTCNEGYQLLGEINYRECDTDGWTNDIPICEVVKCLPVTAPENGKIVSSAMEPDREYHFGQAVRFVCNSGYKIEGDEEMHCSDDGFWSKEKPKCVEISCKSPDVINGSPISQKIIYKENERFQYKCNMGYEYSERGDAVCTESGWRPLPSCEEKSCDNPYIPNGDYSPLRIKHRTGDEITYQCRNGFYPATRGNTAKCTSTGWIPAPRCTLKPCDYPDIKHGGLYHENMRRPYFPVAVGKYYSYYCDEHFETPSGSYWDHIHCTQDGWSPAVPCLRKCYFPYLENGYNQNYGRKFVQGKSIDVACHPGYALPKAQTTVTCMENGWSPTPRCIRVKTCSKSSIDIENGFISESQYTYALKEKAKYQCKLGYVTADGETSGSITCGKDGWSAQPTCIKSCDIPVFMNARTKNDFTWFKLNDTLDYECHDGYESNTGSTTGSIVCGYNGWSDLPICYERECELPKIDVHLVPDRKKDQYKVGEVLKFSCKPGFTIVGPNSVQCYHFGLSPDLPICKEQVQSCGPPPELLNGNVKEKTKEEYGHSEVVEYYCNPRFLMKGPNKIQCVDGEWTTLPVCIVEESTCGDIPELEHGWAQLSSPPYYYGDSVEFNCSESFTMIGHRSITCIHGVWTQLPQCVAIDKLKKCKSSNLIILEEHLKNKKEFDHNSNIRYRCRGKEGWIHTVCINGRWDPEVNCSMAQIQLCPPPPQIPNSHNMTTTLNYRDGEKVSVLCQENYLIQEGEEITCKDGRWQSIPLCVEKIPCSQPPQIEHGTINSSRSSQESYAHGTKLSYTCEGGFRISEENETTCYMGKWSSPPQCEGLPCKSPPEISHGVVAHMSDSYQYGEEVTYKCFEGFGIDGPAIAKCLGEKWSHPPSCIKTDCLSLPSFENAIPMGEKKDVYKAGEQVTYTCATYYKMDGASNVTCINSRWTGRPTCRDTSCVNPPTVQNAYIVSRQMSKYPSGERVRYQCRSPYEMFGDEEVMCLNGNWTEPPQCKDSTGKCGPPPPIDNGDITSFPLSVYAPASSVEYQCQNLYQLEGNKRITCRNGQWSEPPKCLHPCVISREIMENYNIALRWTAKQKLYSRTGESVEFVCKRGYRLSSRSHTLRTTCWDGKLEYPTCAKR
The assay can be described thus: BLI; steady state.

Assay [2] has as its target T1, recombinant human complement factor H …. As to the kind of experiment: SPR; kinetic. For orientation: In SPR one partner is held on a chip, and binding of the other changes the refractive index at the surface.

B1: 209466 (protein)
chain: NAADKDFAQESAEYEILMLPNLTLDQAYSFILSLKSDPSVSKEVLGEAQKLNDSQAPK
Regarding B1, the dissociation constant Kd in assay [1] came to 66 nM.

B2: 209275 (protein)
chain: IAARFDHAQWAAELEIKELPNLTYEQRKAFRISLYDDPSVSLEVLGEAQKLNDSQAPK
Take B2: the Kd in assay [2] worked out at 124 nM.

For orientation: Kd means a measure of binding affinity in units of concentration.
